pIC50: −log10 of the molar value. IC50 is the fitted dose that halves viability relative to control wells, and lower means more sensitive; a fit beyond the top or the lowest dose is shown as a bound at that dose. AUC, from the same fit, is the share of area under the viability curve across the 256-fold dose range: 1 means no effect, lower means more sensitive. For part of these data: Where the top dose is marked as inferred, it is not printed in the source and was worked back from the curve model. For part of these data: An entry number marks a drug with two screens in the source, which often give different values.
How the values were obtained:
Assay in all cases: Viability of human cancer cell lines after 72 h of drug (GDSC screen)
[1] = compound: Cc1c(N)nc([C@H](CC(N)=O)NC[C@H](N)C(N)=O)nc1C(=O)N[C@H](C(=O)N[C@H](C)[C@@H](O)[C@H](C)C(=O)N[C@H](C(=O)NCCc1nc(-c2nc(C(=O)NCCC[S+](C)C)cs2)cs1)[C@@H](C)O)[C@@H](OC1OC(CO)C(O)C(O)C1OC1OC(CO)C(O)C(OC(N)=O)C1O)c1cnc[nH]1 [Bleomycin]
Method: (§1)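 Human cancer cell lines in 384-well plates, medium with 10% serum, drug for 72 h over a 256-fold dose range (nine 2-fold or five 4-fold steps up to the top dose). Adherent lines were fixed and stained with the nucleic acid dye Syto60, suspension lines read with resazurin; signal relative to control wells, capped at 0 and 100%. One two-parameter sigmoid per drug and line, fitted in a mixed model over all curves with the slope shared within a line.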

[2] = compound: O=S(=O)(O)c1ccc2cc(N=Nc3cc(S(=O)(=O)O)c4cccnc4c3O)ccc2c1 [NSC-87877]; settings: top dose 16 µM; top dose inferred
Method: as §1

[3] = compound: O=C(Nc1ccc(OC(F)(F)F)cc1)c1sccc1NCc1ccnc2ccccc12 [OSI-930]; settings: top dose 10.24 µM
Method: as §1

[4] = compound: Cc1ccc(NC(=O)c2ccc(CN3CCN(C)CC3)cc2)cc1Nc1nc(-c2cccnc2)cs1 [Masitinib]; settings: top dose 20 µM
Method: as §1

[5] = compound: O=C(Nc1cccc(Nc2ncc(Br)c(NCCc3cnc[nH]3)n2)c1)N1CCCC1 [BX-912]; settings: top dose 10.24 µM; top dose inferred
Method: as §1

[6] = compound: O=C(/C=C/c1ccc(CN(CCO)CCc2c[nH]c3ccccc23)cc1)NO [LAQ824]; settings: top dose 1.024 µM; top dose inferred
Method: as §1

[7] = compound: CCCC(=O)OCc1ccc(OC(=O)/C=C(C)/C=C/C=C(C)/C=C/C2=C(C)CCCC2(C)C)cc1 [VNLG/124]; settings: top dose 5.12 µM; top dose inferred
Method: as §1

[8] = compound: CC/C(=C(\c1ccccc1)c1ccc(OCCN(C)C)cc1)c1ccccc1 [Tamoxifen]; settings: top dose 5 µM
Method: as §1

[9] = compound: CN(NC(=O)CC(=O)NN(C)C(=S)c1ccccc1)C(=S)c1ccccc1 [Elesclomol]; settings: top dose 0.2 µM; top dose inferred
Method: as §1

[10] = top dose 50 µM, screen: GDSC drug entry 1378, top dose inferred
[11] = top dose 64 µM, screen: GDSC drug entry 190

Cell Line | AUC [1, 10] | pIC50 [1, 10] | AUC [1, 11] | pIC50 [1, 11] | AUC [2] | pIC50 [2] | AUC [3] | pIC50 [3] | AUC [4] | pIC50 [4] | AUC [5] | pIC50 [5] | AUC [6] | pIC50 [6] | AUC [7] | pIC50 [7] | AUC [8] | pIC50 [8] | AUC [9] | pIC50 [9]
EW-3 (Ewing sarcoma, adherent) | 0.522 | 5.44 | 0.724 | 4.72 | 0.98 | < 4.80 | 0.984 | < 4.99 | 0.902 | < 4.70 | 0.865 | < 4.99 | 0.669 | 6.69 | 0.95 | < 5.29 | 0.966 | < 5.30 | 0.727 | 7.21
EW-13 (Ewing sarcoma, suspension) | 0.758 | 4.72 | 0.205 | 6.32 | 0.72 | 5.34 | 0.935 | < 4.99 | 0.793 | 4.99 | 0.708 | 5.58 | 0.246 | 7.97 | 0.984 | < 5.29 | 0.982 | < 5.30 | 0.704 | 7.30
EW-18 (Ewing sarcoma, suspension) | 0.95 | < 4.30 | 0.809 | 4.44 | 0.982 | < 4.80 | 0.943 | < 4.99 | 0.854 | 4.76 | 0.387 | 6.51 | 0.4 | 7.48 | 0.878 | < 5.29 | 0.981 | < 5.30 | 0.829 | 6.87
FU97 (stomach, adherent) | 0.717 | 4.88 |  |  | 0.985 | < 4.80 | 0.965 | < 4.99 | 0.949 | < 4.70 | 0.833 | 5.16 | 0.381 | 7.53 | 0.979 | < 5.29 | 0.957 | < 5.30 | 0.878 | < 6.70
FU-OV-1 (ovary, adherent) | 0.862 | < 4.30 | 0.764 | 4.52 | 0.969 | < 4.80 | 0.962 | < 4.99 | 0.886 | < 4.70 | 0.89 | < 4.99 | 0.399 | 7.51 | 0.982 | < 5.29 | 0.968 | < 5.30 | 0.623 | 7.52
G-292 Clone A141B1 (osteosarcoma, adherent) | 0.669 | 4.91 | 0.905 | < 4.19 | 0.912 | < 4.80 | 0.95 | < 4.99 | 0.942 | < 4.70 | 0.65 | 5.67 | 0.966 | < 5.99 | 0.968 | < 5.29 | 0.972 | < 5.30 | 0.748 | 6.99
G-361 (melanoma, adherent) | 0.704 | 4.94 | 0.115 | > 6.60 | 0.988 | < 4.80 | 0.951 | < 4.99 | 0.866 | 4.78 | 0.934 | < 4.99 | 0.228 | 7.97 | 0.98 | < 5.29 | 0.979 | < 5.30 | 0.442 | 8.06
G-402 (soft tissue, adherent) | 0.278 | 6.23 | 0.153 | > 6.60 | 0.955 | < 4.80 | 0.91 | < 4.99 | 0.661 | 5.39 | 0.591 | 5.91 | 0.478 | 7.26 | 0.963 | < 5.29 | 0.918 | < 5.30 | 0.274 | 8.65
GDM-1 (acute myeloid leukaemia, suspension) | 0.908 | < 4.30 | 0.146 | 6.47 | 0.987 | < 4.80 | 0.158 | 7.22 | 0.153 | 6.94 | 0.376 | 6.53 | 0.23 | 7.96 | 0.948 | < 5.29 | 0.956 | < 5.30 | 0.983 | < 6.70
GMS-10 (glioma, adherent) | 0.381 | 5.83 | 0.977 | < 4.19 | 0.969 | < 4.80 | 0.983 | < 4.99 | 0.876 | 4.71 | 0.951 | < 4.99 | 0.802 | 6.30 | 0.984 | < 5.29 | 0.987 | < 5.30 | 0.804 | 7.00
GOTO (neuroblastoma, adherent) | 0.133 | > 6.71 | 0.248 | 6.17 | 0.977 | < 4.80 | 0.966 | < 4.99 | 0.945 | < 4.70 | 0.976 | < 4.99 | 0.636 | 6.79 | 0.949 | < 5.29 | 0.977 | < 5.30 | 0.536 | 7.80
H4 (glioma, adherent) | 0.155 | 6.56 | 0.198 | 6.29 | 0.986 | < 4.80 | 0.967 | < 4.99 | 0.878 | < 4.70 | 0.907 | < 4.99 | 0.492 | 7.22 | 0.964 | < 5.29 | 0.98 | < 5.30 | 0.419 | 8.12
H2373 (mesothelioma, adherent) | 0.529 | 5.42 | 0.428 | 5.62 | 0.919 | < 4.80 | 0.98 | < 4.99 | 0.983 | < 4.70 | 0.982 | < 4.99 | 0.555 | 7.03 | 0.97 | < 5.29 | 0.981 | < 5.30 | 0.677 | 7.35
